Laboratory results taken from patent US20190062448A1, “ANTI-CD39 ANTIBODIES, COMPOSITIONS COMPRISING ANTI-CD39 ANTIBODIES AND METHODS OF USING ANTI-CD39 ANTIBODIES” (Tizona Therapeutics, priority 2017, published 2019).
“Also recorded” adds a separate entry of the source.

Experiments:
[1] = molecular target: T1, human-mouse CD39 chimeras (Homo sapiens, UniProt P49961, D150A/E143Q/E153S/L144S/N158S/R147E/R154T/S157K/V151A); test: Binding to human-mouse CD39 chimeras and point mutants expressed in CHO cells (FACS); conditions: 15 μg/ml antibody
T1 construct: expressed in transfected cells; host or cells: CHO cells
T1 sequence (P49961 1-510 E143Q/L144S/R147E/D150A/V151A/E153S/R154T/S157K/N158S): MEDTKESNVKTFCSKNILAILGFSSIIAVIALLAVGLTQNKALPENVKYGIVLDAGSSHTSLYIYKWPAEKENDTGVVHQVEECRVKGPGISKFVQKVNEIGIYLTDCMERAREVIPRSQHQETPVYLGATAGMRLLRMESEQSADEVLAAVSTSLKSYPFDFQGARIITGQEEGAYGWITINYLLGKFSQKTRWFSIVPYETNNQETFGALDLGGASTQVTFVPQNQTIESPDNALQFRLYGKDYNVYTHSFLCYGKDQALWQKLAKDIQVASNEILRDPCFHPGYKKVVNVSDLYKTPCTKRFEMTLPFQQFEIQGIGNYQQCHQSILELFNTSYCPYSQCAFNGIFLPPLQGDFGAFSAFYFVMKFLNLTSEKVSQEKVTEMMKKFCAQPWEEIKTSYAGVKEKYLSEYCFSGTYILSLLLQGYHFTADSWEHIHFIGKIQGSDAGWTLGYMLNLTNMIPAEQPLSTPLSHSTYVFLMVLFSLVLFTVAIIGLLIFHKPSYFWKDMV
Procedure: (§1) Chimeras were generated by replacing human CD39 with mouse CD39 sequence in mammalian expression vectors. The chimeras were expressed in CHO cells and the ability of anti-human CD39 antibodies to bind the chimeras tested via FACS. In brief, cells were washed and blocked in FACS buffer (PBS/2% FBS) for 30 min on ice. They were then incubated with 15 μg/ml anti-human CD39 antibodies diluted in FACS buffer×1 h on ice. After 2 washes, cells were incubated with fluorescently labeled anti-human Fc antibodies, anti-mouse Fc antibodies, or anti-mCD39 antibody (R&D Systems 495826) diluted in FACS buffer per manufacturers' instructions×30 min on ice. After 2 washes, cells were resuspended in FACS buffer and analyzed on BD Fortessa. Data was processed with FlowJo. Positive binding was scored as “yes” and lack of binding was scored as “NO” and examples of FACS plots used to generate this table are in FIGS. 14.F and 14.G.
(§2) Chimeras were generated by mutagenesis of Chimera #2 or WT hCD39 expression vectors. Residues for mutagenesis were chosen based on divergence between human and mouse CD39. The chimeras were expressed in CHO cells and the ability of anti-human CD39 antibodies to bind the chimeras tested via FACS, as described in FIG. 14E. Table 2. Positive binding was scored as “Yes” and lack of binding was scored as “No” and examples of FACS plots used to generate this table are in FIGS. 14.F and 14.G.

[2] = molecular target: T2, human-mouse CD39 chimeras (Homo sapiens, UniProt P49961, E276G/I277V/N275G); test: as above; conditions: 15 μg/ml antibody
T2 construct: expressed in transfected cells; host or cells: CHO cells
T2 sequence (P49961 1-510 N275G/E276G/I277V): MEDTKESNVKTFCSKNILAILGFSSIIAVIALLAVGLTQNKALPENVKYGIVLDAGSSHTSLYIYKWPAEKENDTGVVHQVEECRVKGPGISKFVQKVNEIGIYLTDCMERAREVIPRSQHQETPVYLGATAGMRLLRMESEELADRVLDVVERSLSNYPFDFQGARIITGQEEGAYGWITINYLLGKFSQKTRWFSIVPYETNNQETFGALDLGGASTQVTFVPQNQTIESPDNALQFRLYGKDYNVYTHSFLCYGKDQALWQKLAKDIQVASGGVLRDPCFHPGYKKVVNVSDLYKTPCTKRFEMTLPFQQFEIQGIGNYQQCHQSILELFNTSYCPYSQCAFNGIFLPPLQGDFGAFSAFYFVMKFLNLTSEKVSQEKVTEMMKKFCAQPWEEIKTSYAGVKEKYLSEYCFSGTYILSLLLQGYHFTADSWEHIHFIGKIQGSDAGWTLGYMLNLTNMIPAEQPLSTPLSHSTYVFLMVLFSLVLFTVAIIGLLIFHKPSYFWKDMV
Procedure: as §1, §2

B1: 31414: inhibitory anti-CD39 antibody, contacts E143-N158 incl. D150 and E153 (antibody)
heavy: QVQLVQSGAEVKKPGASVKVSCKASGYTFKSYEMHWVRQAPGQGLEWMGRINPSVGSTWYAQKFQGRVTMTRDTSTSTVYMELSSLRSEDTAVYYCARGKREGGTEYLRNWGQGTLVTVSSASTKGPSVFPLAPCSRSTSESTAALGCLVKDYFPEPVTVSWNSGALTSGVHTFPAVLQSSGLYSLSSVVTVPSSSLGTKTYTCNVDHKPSNTKVDKRV[human IgG4 Fc with S228P (EU numbers) left out here]
light: EIVLTQSPGTLSLSPGERATLSCRASQSVSSSYLAWYQQKPGQAPRLLIYGASSRATGIPDRFSGSGSGTDFTLTISRLEPEDFAVYYCQQYHSYITFGGGTKVEIKRTVAAPSVFIFPPSDEQLKSGTASVVCLLNNFYPREAKVQWKVDNALQSGNSQESVTEQDSKDSTYSLSSTLTLSKADYEKHKVYACEVTHQGLSSPVTKSFNRGEC
modifications: Synthetic HC, 31414; Synthetic LC, 31414
notes: D150 and E153
binding to Chimera #2 (human E143-N158 replaced by mouse sequence) [1]: able to bind all chimeras but Chimera #2; also recorded: inability to recognize Chimera #2 | binding to Chimera #4 [2]: able to bind all chimeras but Chimera #2
